# Source: the supplement of paper PMC8728848
# The other results are listed elsewhere or left out.
# How the values were obtained:
# Experiment in all cases: glycan array binding signal (z-score within array); higher = stronger binding
# Conditions in all cases: glycan notation: IUPAC condensed, linker removed
# [1] = target: Fuc(a1-2)Gal
# In short: (§1)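 Columns mapping to the same glycan were averaged after glycan names were converted to IUPAC-condensed notation. The data come from 3228 arrays in the Consortium for Functional Glycomics database, limited to those with an available protein sequence. Binding is reported as a within-array Z-score averaged across arrays of one protein sequence and across linkers.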
# [2] = target: Fuc(a1-2)Gal(b1-3)GalNAc
# In short: as §1
# [3] = target: Fuc(a1-2)Gal(b1-3)GalNAc(a1-3)[Fuc(a1-2)]Gal(b1-4)Glc
# In short: as §1
# [4] = target: Fuc(a1-2)Gal(b1-3)GalNAc(a1-3)[Fuc(a1-2)]Gal(b1-4)GlcNAc
# In short: as §1
# [5] = target: Fuc(a1-2)Gal(b1-3)GalNAc(b1-3)Gal
# In short: as §1
# [6] = target: Fuc(a1-2)Gal(b1-3)GalNAc(b1-3)Gal(a1-4)Gal(b1-4)Glc
# In short: as §1
# [7] = target: Fuc(a1-2)Gal(b1-3)GalNAc(b1-4)[Neu5Ac(a2-3)]Gal(b1-4)Glc
# In short: as §1
# [8] = target: Fuc(a1-2)Gal(b1-3)GlcNAc
# In short: as §1
# [9] = target: Fuc(a1-2)Gal(b1-3)GlcNAc(b1-2)Man(a1-3)[Fuc(a1-2)Gal(b1-3)GlcNAc(b1-2)Man(a1-6)]Man(b1-4)GlcNAc(b1-4)GlcNAc
# In short: as §1
# [10] = target: Fuc(a1-2)Gal(b1-3)GlcNAc(b1-2)Man(a1-3)[Fuc(a1-2)Gal(b1-3)GlcNAc(b1-2)Man(a1-6)]Man(b1-4)GlcNAc(b1-4)[Fuc(a1-6)]GlcNAc
# In short: as §1
# [11] = target: Fuc(a1-2)Gal(b1-3)GlcNAc(b1-3)Gal(b1-4)Glc
# In short: as §1
# [12] = target: Fuc(a1-2)Gal(b1-3)GlcNAc(b1-3)GalNAc
# In short: as §1
# [13] = target: Fuc(a1-2)Gal(b1-3)GlcNAc(b1-3)[Fuc(a1-2)Gal(b1-3)GlcNAc(b1-6)]GalNAc
# In short: as §1
# [14] = target: Fuc(a1-2)Gal(b1-3)GlcNAc(b1-3)[Gal(b1-4)GlcNAc(b1-6)]Gal(b1-4)Glc
# In short: as §1
# [15] = target: Fuc(a1-2)Gal(b1-3)GlcNAc(b1-3)[Neu5Ac(a2-6)Gal(b1-4)GlcNAc(b1-6)]Gal(b1-4)Glc
# In short: as §1
# [16] = target: Fuc(a1-2)Gal(b1-3)GlcNAc6S
# In short: as §1
# [17] = target: Fuc(a1-2)Gal(b1-3)[Fuc(a1-4)]GlcNAc
# In short: as §1
# [18] = target: Fuc(a1-2)Gal(b1-3)[Fuc(a1-4)]GlcNAc(b1-2)Man(a1-3)[Fuc(a1-2)Gal(b1-3)[Fuc(a1-4)]GlcNAc(b1-2)Man(a1-3)]Man(b1-4)GlcNAc(b1-4)GlcNAc
# In short: as §1
# [19] = target: Fuc(a1-2)Gal(b1-3)[Fuc(a1-4)]GlcNAc(b1-2)Man(a1-3)[Fuc(a1-2)Gal(b1-3)[Fuc(a1-4)]GlcNAc(b1-2)Man(a1-6)]Man(b1-4)GlcNAc(b1-4)[Fuc(a1-6)]GlcNAc(b1-4)[Fuc(a1-6)]GlcNAc
# In short: as §1
# [20] = target: Fuc(a1-2)Gal(b1-3)[Fuc(a1-4)]GlcNAc(b1-3)[Fuc(a1-3)[Gal(b1-4)]GlcNAc(b1-6)]Gal(b1-4)Glc
# In short: as §1
# [21] = target: Fuc(a1-2)Gal(b1-3)[Fuc(a1-4)]GlcNAc(b1-3)[Gal(b1-4)GlcNAc(b1-6)]Gal(b1-4)Glc
# In short: as §1
# [22] = target: Fuc(a1-2)Gal(b1-4)Fuc(a1-3)]GlcNAc(b1-2)Man(a1-3)[Fuc(a1-2)Gal(b1-4)[Fuc(a1-3)]GlcNAc(b1-2)Man(a1-6)]Man(b1-4)GlcNAc(b1-4)GlcNAc
# In short: as §1
# [23] = target: Fuc(a1-2)Gal(b1-4)Glc
# In short: as §1
# [24] = target: Fuc(a1-2)Gal(b1-4)Glc6S
# In short: as §1
# [25] = target: Fuc(a1-2)Gal(b1-4)GlcNAc
# In short: as §1
# [26] = target: Fuc(a1-2)Gal(b1-4)GlcNAc(b1-2)Man
# In short: as §1
# [27] = target: Fuc(a1-2)Gal(b1-4)GlcNAc(b1-2)Man(a1-3)[Fuc(a1-2)Gal(b1-4)GlcNAc(b1-2)Man(a1-6)]Man(b1-4)GlcNAc(b1-4)GlcNAc
# In short: as §1
# [28] = target: Fuc(a1-2)Gal(b1-4)GlcNAc(b1-2)Man(a1-3)[Fuc(a1-2)Gal(b1-4)GlcNAc(b1-2)Man(a1-6)]Man(b1-4)GlcNAc(b1-4)[Fuc(a1-6)]GlcNAc
# In short: as §1
# [29] = target: Fuc(a1-2)Gal(b1-4)GlcNAc(b1-2)[Fuc(a1-2)Gal(b1-4)GlcNAc(b1-4)]Man(a1-3)[Fuc(a1-2)Gal(b1-4)GlcNAc(b1-2)Man(a1-6)]Man(b1-4)GlcNAc(b1-4)GlcNAc
# In short: as §1
# [30] = target: Fuc(a1-2)Gal(b1-4)GlcNAc(b1-3)Gal(b1-4)GlcNAc
# In short: as §1
# [31] = target: Fuc(a1-2)Gal(b1-4)GlcNAc(b1-3)Gal(b1-4)GlcNAc(b1-2)Man(a1-3)[Fuc(a1-2)Gal(b1-4)GlcNAc(b1-3)Gal(b1-4)GlcNAc(b1-2)Man(a1-6)]Man(b1-4)GlcNAc(b1-4)GlcNAc
# In short: as §1
# [32] = target: Fuc(a1-2)Gal(b1-4)GlcNAc(b1-3)Gal(b1-4)GlcNAc(b1-3)Gal(b1-4)GlcNAc
# In short: as §1
# [33] = target: Fuc(a1-2)Gal(b1-4)GlcNAc(b1-3)GalNAc
# In short: as §1
# [34] = target: Fuc(a1-2)Gal(b1-4)GlcNAc(b1-3)[Fuc(a1-2)Gal(b1-4)GlcNAc(b1-6)]GalNAc
# In short: as §1
# [35] = target: Fuc(a1-2)Gal(b1-4)GlcNAc(b1-3)[Fuc(a1-3)[Gal(b1-4)]GlcNAc(b1-6)]Gal(b1-4)Glc
# In short: as §1
# [36] = target: Fuc(a1-2)Gal(b1-4)GlcNAc(b1-6)GalNAc
# In short: as §1
# [37] = target: Fuc(a1-2)Gal(b1-4)GlcNAc6S
# In short: as §1
# [38] = target: Fuc(a1-2)Gal(b1-4)[Fuc(a1-3)]GlcNAc
# In short: as §1
# [39] = target: Fuc(a1-2)Gal(b1-4)[Fuc(a1-3)]GlcNAc(b1-2)Man(a1-3)[Fuc(a1-2)Gal(b1-4)[Fuc(a1-3)]GlcNAc(b1-2)Man(a1-6)]Man(b1-4)GlcNAc(b1-4)[Fuc(a1-6)]GlcNAc
# In short: as §1
# [40] = target: Fuc(a1-2)Gal(b1-4)[Fuc(a1-3)]GlcNAc(b1-2)[Fuc(a1-2)Gal(b1-4)[Fuc(a1-3)]GlcNAc(b1-4)]Man(a1-3)[Fuc(a1-2)Gal(b1-4)[Fuc(a1-3)]GlcNAc(b1-2)Man(a1-6)]Man(b1-4)GlcNAc(b1-4)GlcNAc
# In short: as §1
# [41] = target: Fuc(a1-2)Gal(b1-4)[Fuc(a1-3)]GlcNAc(b1-3)Gal(b1-4)[Fuc(a1-3)]GlcNAc
# In short: as §1
# [42] = target: Fuc(a1-2)Gal(b1-4)[Fuc(a1-3)]GlcNAc(b1-3)Gal(b1-4)[Fuc(a1-3)]GlcNAc(b1-3)Gal(b1-4)[Fuc(a1-3)]GlcNAc
# In short: as §1
# [43] = target: Fuc(a1-2)Gal(b1-4)[Fuc(a1-3)]GlcNAc(b1-3)GalNAc
# In short: as §1
# [44] = target: Fuc(a1-2)Gal(b1-4)[Fuc(a1-3)]GlcNAc(b1-3)[Neu5Ac(a2-6)Gal(b1-4)GlcNAc(b1-6)]Gal(b1-4)Glc
# In short: as §1
# [45] = target: Fuc(a1-2)Gal3S(b1-4)GlcNAc
# In short: as §1
binder,measurement,setting,value
"Epa9 (Candida glabrata), CAGL0A01386g (protein) MGSSHHHHHHSSGLVPRGSHMDITPFAHYPRPEGCSSPPNAVSVGLHMDLYNYPYLYVKNPRTGFTNDTDSDADGETDGDSAGGIEGRAGQCWNPEYQDPNFPRYGYKKYGSFGSSDHVNGKISWDHNEFKEGCKPIMARLPTAYNYPAKITFSNFTMVLSGYFKPKSTGLYKFEIHADDFILFNFGSKNAFECCNREESIDNFGPYVAYAMWPNEADQELEVYLFEDSYYPIRLFYNNRDYHSKFMVGFYPPNTEEITYDFDGYLYMLDDTGNECKDSIRYKTVCDD",glycan array binding signal (z-score),[1],-0.628
same,glycan array binding signal (z-score),[2],-0.428
same,glycan array binding signal (z-score),[3],-0.471
same,glycan array binding signal (z-score),[4],-0.078
same,glycan array binding signal (z-score),[5],-0.366
same,glycan array binding signal (z-score),[6],-0.476
same,glycan array binding signal (z-score),[7],-0.361
same,glycan array binding signal (z-score),[8],-0.513
same,glycan array binding signal (z-score),[9],-0.396
same,glycan array binding signal (z-score),[10],-0.458
same,glycan array binding signal (z-score),[11],-0.504
same,glycan array binding signal (z-score),[12],-0.468
same,glycan array binding signal (z-score),[13],-0.296
same,glycan array binding signal (z-score),[14],0.463
same,glycan array binding signal (z-score),[15],-0.246
same,glycan array binding signal (z-score),[16],-0.379
same,glycan array binding signal (z-score),[17],-0.514
same,glycan array binding signal (z-score),[18],-0.316
same,glycan array binding signal (z-score),[19],-0.451
same,glycan array binding signal (z-score),[20],-0.203
same,glycan array binding signal (z-score),[21],0.159
same,glycan array binding signal (z-score),[22],-0.247
same,glycan array binding signal (z-score),[23],-0.404
same,glycan array binding signal (z-score),[24],-0.355
same,glycan array binding signal (z-score),[25],-0.473
same,glycan array binding signal (z-score),[26],-0.466
same,glycan array binding signal (z-score),[27],-0.424
same,glycan array binding signal (z-score),[28],-0.387
same,glycan array binding signal (z-score),[29],-0.479
same,glycan array binding signal (z-score),[30],-0.445
same,glycan array binding signal (z-score),[31],-0.268
same,glycan array binding signal (z-score),[32],-0.869
same,glycan array binding signal (z-score),[33],-0.422
same,glycan array binding signal (z-score),[34],-0.355
same,glycan array binding signal (z-score),[35],-0.303
same,glycan array binding signal (z-score),[36],-0.413
same,glycan array binding signal (z-score),[37],-0.283
same,glycan array binding signal (z-score),[38],-0.589
same,glycan array binding signal (z-score),[39],-0.334
same,glycan array binding signal (z-score),[40],-0.279
same,glycan array binding signal (z-score),[41],-0.521
same,glycan array binding signal (z-score),[42],-0.539
same,glycan array binding signal (z-score),[43],-0.161
same,glycan array binding signal (z-score),[44],-0.247
same,glycan array binding signal (z-score),[45],-0.279
